The other results are listed elsewhere or left out.
Test system: PF3D7_0420300 AP2 domain 1 (GST-tagged)
Test: gcPBM binding intensity (ln(normalized median fluorescence intensity)); higher = stronger DNA binding
In short: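 Alexa488 anti-GST antibody, scanned at 488 nm, detected GST-tagged P. falciparum DNA-binding domains that had been expressed in E. coli and incubated for 1 h on an Agilent 4 × 180k array. The array carried primer-extended double-stranded 36-bp intergenic genomic probes and negative controls. Binding intensity is the highest Masliner-normalised natural-log median intensity across replicate spots of either orientation of each probe.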

| Sequence | gcPBM binding intensity (ln) |
| --- | --- |
| ATACCAAATGAATAATGTACATACGAACATACATAT [XGTACX_site1301] | 9.46 |
| GTACATTGTAAGGATGGAAAAGCTAAACATTATAAT [XGTACX_negctrl_site339] | 9.39 |
| ATATTTTTAACCAAGGACACAATTCTTGTATTGTTA [CACACA_negctrl_site1326] | 9.1 |
| AAAAGATTAAGTAGAATAATGTTCTTTCCCAACATA [GTGCAC_negctrl_site223] | 9 |
| TAAGTCGTTATAAGCACACACATAAATAAAAATAAA [CACACA_site1574] | 9.54 |
| AAGGGTTATAAAAATTGTACTTTTTTTATTTTTTTT [XGTACX_site1313] | 9.31 |
| ATATATTTATATAGGTGTACATATTTTGCTATTCAA [XGTACX_site5199] | 9.23 |
| TCAATTTTTTAATGTTGTACTTTGTAAAAAAAAATA [XGTACX_site8481] | 8.8 |
| TTGATATGTACAGGCACACATAAATTTCACAAATAT [CACACA_site3999] | 9.31 |
| CGTATTATTTTATAAACACACAAGGGGGCATGTATA [CACACA_site6489] | 9.79 |
| CTTTAGTTTTTAATGTGTACTGAATTTGAATAGTAG [XGTACX_site7920] | 9.12 |
| ATATAATTAAAAACATGTACATATATATATATATAT [XGTACX_site2882] | 9.26 |
| CATAAATGTATATAAACATGCAAGGACAGACTTTTA [TGCATGCA_site900] | 9.39 |
| AAAATTAAATTATAAGCACACACATATATATATATA [CACACA_site9105] | 9.44 |
| TACATACAGATATATACACACATATATAATATATAT [CACACA_site4376] | 9.71 |
| TACATACCTATATACACATGCATATTTACATATATT [TGCATGCA_site206] | 9.67 |
| GTAAAAATACAAAAGGTGCTCAAACAATATAATACA | 9.6 |
| AATGGATTGATAAGTGGTACACACATATATATTATA [XGTACX_site6086] | 9.58 |
| GAATATTAAACAAACACACACACATATATTTATATA [CACACA_site7563] | 10.1 |

| Sequence | gcPBM binding intensity (ln) |
| --- | --- |
| TATATAATATATATGACACACATATTTATATAAATA [CACACA_site4054] | 9.28 |
| TATTCTGGTGTAAATGCACACAGAAGAAGAAAAAAA [CACACA_site9225] | 9.27 |
| AAGGACACCTTCAAAACACACATACAAATAAATAGA [CACACA_site5771] | 9.62 |
| TTCTGTTGGAATATATGTACATAATAAAAAAAAATA [XGTACX_site1741] | 8.99 |
| TTTTTTTTTTTTGTAATACACACCACTATATGTTAT [CACACA_site1844] | 9.45 |
| AATAAATAAAAAAAAAAAAAAAAAAAAAAAAAAAAA [XGTACX_negctrl_site343] | 8.62 |
| TGTAGTCTGGAGAAAAGTACACAGTATCTGGTAACA [XGTACX_site2010] | 9.05 |
| TATGGCAAAACATTCACACATATTTATATATGTGTA [CACACA_site5588] | 9.2 |
| AGTTTTATAAAAATATGTACTTATATACACATGTAT [XGTACX_site4022] | 9.33 |
| TGTGGGAATAACCACACACACACACGCATATAAATA [CACACA_site7634] | 10 |
| TTTTCATATGAACAATGTACACATCGTATAATTCTG [XGTACX_site4756] | 9.23 |
| TGAACAGACGAGCACACACACACATATATATATATA [CACACA_site1019] | 9.87 |
| CTCATAAAAATAACGTTAACATAAATTTATTGTGAT [XGTACX_negctrl_site169] | 9.31 |
| AATATAAAACATATCACACATATGTATTTATGTATA [CACACA_site5763] | 9.22 |
| TATATGTCAATATCTACACACATATATATAATTATT [CACACA_site3156] | 9.5 |
| ATACATATTAAAGGATGTACACTTATATTTTTTAGA [XGTACX_site5406] | 9.11 |
| TTTATATTATTTTAAACATGCACAAGTATAATTTAT [TGCATGCA_site233] | 8.97 |
| TAAATTTAGAAACACACACACATATATATATATATA [CACACA_site847] | 9.72 |
| AATTTAAACAAGGATCCACACACCCCAAAAAAAAAA [CACACA_site8125] | 9.83 |

| Sequence | gcPBM binding intensity (ln) |
| --- | --- |
| AATAATTAAAATTATCTACACACCTTTATAAATATA [CACACA_site9300] | 9.29 |
| GCCATTAATTTATACACACACATTATGATTTTTTAT [CACACA_site754] | 9.95 |
| CCTGAACACATACATACACACACACTAATAAAAAAA [CACACA_site8023] | 9.86 |
| ATGCATATGTTTATTGCACACACCAAAAAGAAAACA [CACACA_site403] | 9.64 |
| AAAATGTGCCCACGCGTACACACAAAAAAAGAAAAA [CACACA_site2004] | 9.45 |
| TACAAACTATGATGCACACATATATATATGTATACA [CACACA_site1226] | 9.42 |
| AACATACACATATACACACACACATATATACATATA [CACACA_site1093] | 10.2 |
| AAAAAAAAAAAAACATGTACATAAATGTAAAAAAGT [XGTACX_site8158] | 9.81 |
| TATAATAACAATTTAGTGCATATAATAATATTTTAT | 9.08 |
| GCTTTTGAAAATATACACATGTTAGGAATACAGGGG [TGCATGCA_negctrl_site480] | 9.67 |
| ACATATAAAATGTATACACACAAATATTACAGAGAT [CACACA_site4920] | 9.8 |
| ATTTTTTTTCTTTTTTTTTTACATTTTTTTCTTTTT [CACACA_negctrl_site1289] | 9.62 |
| AATTAAGTTAAACATTAAAAAAAACAAAAAATTAAA [CACACA_negctrl_site1333] | 9.22 |
| ATATATACATATATATGTACGTATATTTTTATTTCT [XGTACX_site6198] | 9.49 |
| TATAAACCCACCTACACACACAACGTAAATGCATTG [CACACA_site2238] | 9.84 |
| ATTTAACAACTTCAAACACACAATATAGATTTATAT [CACACA_site7067] | 9.48 |
| CGTTTATATAGTGATGCATGCATTGTTAACATGGTT [TGCATGCA_site418] | 9.33 |
| TTTATACACAAAAAATGTACATATATATAATGAATT [XGTACX_site1195] | 9.22 |
| TGTATGTCTTTATTTTGTACACAATATAAAAAATTA [XGTACX_site5441] | 9.04 |
